# According to PMC6212790:
# The other results are listed elsewhere or left out. At the low end of the ranking the order means little.
# Biological target: T1, GST-Rok-C97-191 (UniProt O34857)
# T1 sequence: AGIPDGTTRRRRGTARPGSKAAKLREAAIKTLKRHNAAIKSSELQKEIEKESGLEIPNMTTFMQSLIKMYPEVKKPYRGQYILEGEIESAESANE
# Assay: protein binding microarray;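 also: rank score from −0.5 (least bound) to 0.5 (best bound)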
# Conditions: Rok is a gene silencer of Bacillus subtilis; high values mean tight binding; most listed sequences are background and not binding sites; double strand, one strand shown
row,Sequence,binding signal [E-score]
1,CCGTCAAC,-0.116
2,GTGCAAAA,0.0465
3,ACCTTGCA,-0.00674
4,GCCAAACA,0.164
5,ACAGGTAC,0.095
6,GTTGTCCA,-0.123
7,ACTTAGAT,0.255
8,AGTCTATA,0.218
9,TATAGCAA,0.162
10,GTTGGTGA,-0.0888
11,TCGTCTAA,-0.15
12,ACGGACGC,-0.335
13,TCCACAGA,-0.0457
14,CAGGGGCG,-0.376
15,AGCTTCAA,-0.0507
16,CCAGGGAA,-0.173
17,GAGCGGAA,-0.281
18,CCCGATAG,0.127
19,CCGTGAGC,-0.253
20,CCCTCAAG,-0.306
21,CCCAGTTA,-0.234
22,AACGTTCT,0.194
23,CGCCCGCA,-0.314
24,AACGGGCT,-0.138
25,ACGGCTCA,-0.0392

row,Sequence,binding signal [E-score]
1,GTACTCAC,-0.11
2,CGTACGGC,0.0464
3,GGGATCAC,-0.212
4,ACGGCATC,-0.0706
5,AAAGTTCC,0.0995
6,ATTCCGGG,-0.0619
7,ACTATATC,0.284
8,ATGGAATA,0.0421
9,AAAAATCT,-0.0876
10,AAGTGCAC,0.0765
11,AGTCGCCA,-0.171
12,CGTTGTTC,0.00358
13,CGTAGGAC,-0.193
14,AGACAAAC,0.0858
15,AAGACGCG,-0.142
16,GGGAGAAC,-0.124
17,ACGTTGCA,-0.0279
18,GCCTCGAC,-0.155
19,ATAACTTA,0.292
20,ATACAAAG,0.17
21,CTACAGCC,0.138
22,AGAGCGCA,-0.111
23,GCACTGCC,-0.181
24,AGCTTATC,-0.00797
25,AATCGTAA,0.0838

row,Sequence,binding signal [E-score]
1,TGAGATAA,0.0668
2,ACCTCTCA,-0.104
3,CACCGACA,-0.175
4,CGACTTAA,0.0324
5,CCCACCTC,-0.206
6,CCCCACAC,-0.197
7,ATTGGTTA,0.191
8,ATCCGATC,0.0714
9,CATCTTAG,0.0146
10,CCAACTAC,0.199
11,GGGTCAGA,0.00669
12,AGATACAT,0.302
13,ACCCGCGA,-0.0898
14,ATACGTGC,0.115
15,CCGAATCC,-0.176
16,CCGGCTTC,-0.0836
17,CACCCGCC,-0.206
18,CCGTCTGA,-0.11
19,CGCCATGC,-0.166
20,AGTGAACA,-0.102
21,AGCATAAG,-0.133
22,AAAATGCT,0.113
23,AGCACGGG,-0.186
24,GGCGTTCA,-0.0817
25,GCGCATCA,-0.0275

row,Sequence,binding signal [E-score]
1,CGCGTCTA,-0.0422
2,AGCTTTGG,-0.182
3,ATATTCAC,0.183
4,CCCAACCG,-0.0628
5,CCCCGCCC,-0.247
6,CCCACTGC,-0.294
7,CCGTGCGC,-0.17
8,CAGAGCCC,-0.213
9,TAGCGCGA,0.256
10,CCAGTTTC,-0.105
11,TCCTGGAA,-0.0754
12,GGAGTGAA,-0.149
13,AGTATGAT,0.282
14,AACTCGTG,0.0143
15,CCCCATAA,-0.0637
16,AGTGTCAT,-0.236
17,TATAGGAA,0.117
18,AGAAGACT,-0.0198
19,GATATAGA,0.244
20,AAGAGTCC,-0.17
21,GGTTCCAC,-0.176
22,ATTACAAG,0.141
23,AGGCTTCG,-0.125
24,TCATGCAA,-0.114
25,CTTCTGTC,-0.0833

row,Sequence,binding signal [E-score]
1,AACACAGC,-0.0594
2,GATGTTAC,0.23
3,AGAGGTCA,-0.249
4,ACATAGCG,0.117
5,ATCGAACG,-0.0525
6,GACGAGGC,-0.258
7,CACCAACC,-0.296
8,TAACGACA,0.172
9,CACCTATA,0.223
10,CGATCCTC,-0.38
11,CGTGTATC,0.136
12,GAATGGGC,-0.131
13,CATTGTCA,-0.0136
14,ACAAATTC,0.178
15,AGAAGACG,0.0323
16,ACTGTTTC,-0.127
17,ATAGTAGC,0.378
18,GACCGCCA,-0.292
19,AATGGAGT,0.077
20,ATTCCGAG,-0.0113
21,TACATACA,0.253
22,ATGAACAT,0.2
23,CCAAAATA,0.148
24,CTCATAGA,0.0293
25,CTCACTGA,-0.129

row,Sequence,binding signal [E-score]
1,CTAGAAAA,0.312
2,CTGCGGTA,0.26
3,GTACCACA,0.0685
4,ATTGGGTA,0.144
5,AAGACCTG,-0.0829
6,AAGCAGCT,-0.124
7,CTCTTCTA,0.0541
8,ACCGAAGC,-0.0987
9,ACCTAAGG,-0.016
10,CCGTGAAA,-0.0516
11,GCCCGACA,-0.299
12,CTAGATTA,0.312
13,CATCGTGA,-0.0916
14,AACGCATA,0.0836
15,AGATGTAG,0.331
16,AAGCGCTC,-0.098
17,ACCCCGCG,-0.206
18,AAATGTCG,-0.0895
19,AACTTGTG,0.0787
20,TTGGAAAA,-0.00253
21,ACTCCCCC,-0.25
22,AGCTGTAA,0.0485
23,GACCAGAC,-0.182
24,GTGTCTGA,-0.0244
25,CCTGGATA,-0.0341

row,Sequence,binding signal [E-score]
1,AATAACCA,0.0952
2,TAAGACGA,-0.141
3,GGGTACTA,0.118
4,CGAGGTGC,-0.245
5,CACTGGTC,-0.298
6,GCATGCTA,0.0693
7,ACTAGTGC,0.167
8,ACCTATGA,0.0848
9,ATCTGGTG,-0.0403
10,AAAGACAA,-0.0239
11,AGCATGTA,0.263
12,AGAACTTG,0.124
13,GGCATCAC,0.00707
14,GACACGAA,-0.192
15,CGTCAGGA,-0.21
16,CAGTTCCG,-0.148
17,GTCTATAA,0.0588
18,CAGGCAAA,-0.171
19,CTGCCCGA,-0.19
20,ACGGGTAT,-0.0487
21,AGAAAGAG,-0.0851
22,CACCGGGC,-0.309
23,GGACAACC,-0.164
24,CTGAGAGA,-0.0135
25,ACCTGGCT,-0.198

row,Sequence,binding signal [E-score]
1,CCAAGGAG,-0.303
2,AGAGCTCC,-0.142
3,GCTAAGAC,-0.164
4,ATCCTATA,0.21
5,AACCATGA,0.081
6,GAACCTCA,-0.138
7,ATGGAGAC,0.0287
8,CTGGTCGA,-0.0276
9,ACATACGT,0.00445
10,CCTTGCGA,-0.27
11,CAACCTCC,-0.157
12,CGCGGAAG,-0.191
13,GGAGAGAC,-0.15
14,ACACTAGG,0.0693
15,CACTACGA,0.123
16,GTAACGCA,-0.149
17,GAGTAGAA,0.279
18,ATACTATG,0.254
19,ACTAGGAG,0.0702
20,CCACCCGC,-0.234
21,CAACACCA,-0.0858
22,CAAAGAAG,-0.145
23,GCGGGTAA,-0.249
24,CTAGCCGC,-0.192
25,ACCATTTC,0.248

row,Sequence,binding signal [E-score]
1,AATGAGGG,-0.0785
2,ACACCCAG,-0.238
3,CTGTTTTC,0.111
4,ATTGCTAA,0.199
5,GGTCGCCA,-0.245
6,ATCAAGTG,0.188
7,GCATACAA,0.0678
8,GTACTCCA,-0.0636
9,CCGCGTCA,-0.0739
10,AACGTTGG,-0.174
11,CTTGTCCC,-0.25
12,GCGTCGCA,0.0802
13,CCTCACAA,0.0274
14,AACGGCGG,-0.015
15,GAGCTGAA,-0.0846
16,CCAAACGA,0.0883
17,AGTACTCA,-0.0984
18,AATCTTTC,0.119
19,CAGACGAG,-0.236
